Among all 360,000 compounds or so, about 25,000 (6.9%) were called active. The shares of active, inactive and inconclusive entries below differ from those in the screen. Calls follow the shape of the dose curve; as a rule, active = well fitted inhibition curve with a large enough effect; inconclusive = small, poorly fitted or top-dose-only effect; inactive = flat fitted curve, though single readings scatter. Potencies beside an inconclusive call are fits to weak or partial responses and may not hold up.
The compounds below were run against Luciferin 4-monooxygenase (Photinus pyralis) (UniProt P08659) (assay: qHTS profiling assay for firefly luciferase inhibitor/activator using purifed enzyme and Km concentrations of substrates (counterscreen for miR-21 project)). Conditions: purified FLuc, luminescence inhibition; series mostly up to 57.5 µM; activity change, negative = inhibition: at the top concentration.
UniProt P08659, sequence (P08659 whole entry, looked up): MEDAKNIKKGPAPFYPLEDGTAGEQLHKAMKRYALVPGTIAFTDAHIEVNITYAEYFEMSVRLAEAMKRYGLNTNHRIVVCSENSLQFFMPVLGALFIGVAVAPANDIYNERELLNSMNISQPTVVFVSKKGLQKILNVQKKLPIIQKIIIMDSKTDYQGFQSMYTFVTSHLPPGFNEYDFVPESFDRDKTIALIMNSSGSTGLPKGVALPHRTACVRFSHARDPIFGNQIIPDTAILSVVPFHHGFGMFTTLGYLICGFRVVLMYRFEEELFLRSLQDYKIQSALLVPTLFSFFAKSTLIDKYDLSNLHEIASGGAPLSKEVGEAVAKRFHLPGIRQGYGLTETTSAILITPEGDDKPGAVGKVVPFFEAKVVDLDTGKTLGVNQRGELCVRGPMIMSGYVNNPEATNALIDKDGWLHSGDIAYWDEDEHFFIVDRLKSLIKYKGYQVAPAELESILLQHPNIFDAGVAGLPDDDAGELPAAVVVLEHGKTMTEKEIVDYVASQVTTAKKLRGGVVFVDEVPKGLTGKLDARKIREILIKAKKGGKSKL
Outline: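 Purified P. pyralis luciferase (10nM final) with 10uM D-luciferin and 10uM ATP (Km levels) in 50mM Tris acetate pH 7.5, 10mM Mg acetate, 0.01% Tween-20, 0.05% BSA; qHTS 6-point titration, ~60 µM downward; luminescence read.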
Also: nearly all actives have a fitted effect of over 55% in size.
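For activity change, negative = inhibition in this document: plate controls were vehicle for no effect and reference inhibitor for full effect.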
Potency is read from the fitted curve at half-maximal effect; tags tell the direction and shape of the fitted curve.

| SMILES | Potency | activity change, negative = inhibition |
| --- | --- | --- |
| CC(C)(C)C1CCc2[nH]c3ccccc3c(=O)c2C1 (stereo not given) | active: 6.01 µM |  |
| O=C(Nc1cccc(-c2cn3cccnc3n2)c1)c1ccc2c(c1)OCO2 | active: 12 µM |  |
| C/C(=N/NC(=O)c1cccc(Br)c1)C1CC2CCC1C2 (stereo not given) | inconclusive: 26.9 µM [inhibitor, partial curve, poor fit] |  |
| CCOc1ccc(NC(=O)C(c2ccccn2)N(C(=O)CCl)c2ccc(OCC)cc2)cc1 (stereo not given) | inconclusive: 37.9 µM [inhibitor, partial curve, poor fit] |  |
| Cc1ccc(NC(=O)CSc2ccccc2NC(=O)c2ccccc2)cc1Cl | inconclusive: 19 µM [inhibitor, partial curve] |  |
| CN(Cc1c(F)cccc1Cl)C(=O)CNC(=O)c1cccs1 | inconclusive: 23.9 µM [inhibitor, single point] |  |
| COCCN(C(=O)COC(=O)/C=C/c1ccc2ccccc2n1)c1c(N)n(Cc2ccccc2)c(=O)[nH]c1=O | inconclusive: 23.9 µM [inhibitor, single point] |  |
| CCS(=O)(=O)c1ccc(O)c(NC(=O)COc2ccc(C)cc2)c1 | inconclusive: 15.1 µM [inhibitor, single point] |  |
| Cn1c(/C=C/c2ccc(Br)cc2)nc2ccccc2c1=O | inconclusive: 6.75 µM [inhibitor, full curve] |  |
| COc1ccc(/C=N/NC(=O)c2cc(Br)ccc2O)cc1Cn1cc(Cl)cn1 | inconclusive: 37.9 µM [inhibitor, single point] |  |
| O=C(Oc1ccc2c3c(c(=O)oc2c1)CCCC3)c1cccs1 | active: 16.9 µM |  |
| CCOC(=O)Cc1csc(NS(=O)(=O)c2ccc(SC)cc2)n1 |  | inactive: -16.2% |
| CCOc1ccc(N2CC(C(=O)Nc3nnc(Cc4ccc(OC)c(OC)c4)s3)CC2=O)cc1 (stereo not given) | inconclusive: 37.9 µM [inhibitor, partial curve, poor fit] |  |
| NC(=O)c1c(NC(=S)Nc2ccccc2)sc2c1CCCC2 | inconclusive: 13.5 µM [inhibitor, partial curve, poor fit] |  |
| NCc1nc2cccnc2n1Cc1ccccc1Cl |  | inactive: -2.06% |
| COn1c(-c2ccccc2)nc2ccc(Cl)cc21 | active: 12 µM |  |
| O=C(Oc1cc2oc(=O)cc(-c3ccccc3)c2cc1Cl)C1CCCCC1 |  | inactive: 0.325% |
| CCN1/C(=C/C=C/C=C/c2sc3ccccc3[n+]2CC)Sc2ccccc21 | active: 15.1 µM |  |
| OC1CCN(C(=S)Nc2ccc(Nc3ccccc3)cc2)CC1 | inconclusive: 33.8 µM [inhibitor, partial curve, poor fit] |  |
| CCc1ccc(NC(=O)CCC(=O)Nc2nnc(C(C)C)s2)cc1 | inconclusive: 37.9 µM [inhibitor, single point] |  |
